Laboratory results published in a collection of fitness landscapes (doi:10.1126/science.1257360).
This is one part of the list.

B1: PhoQ; a variant is named by its letters at X, in order, P23837 (parent)
chain: MKKLLRLFFPLSLRVRFLLATAAVVLVLSLAYGMVALIGYSVSFDKTTFRLLRGESNLFYTLAKWENNKLHVELPENIDKQSPTMTLIYDENGQLLWAQRDVPWLMKMIQPDWLKSNGFHEIEADVNDTSLLLSGDHSIQQQLQEVREDDDDAEMTHSVAVNVYPATSRMPKLTIVVVDTIPVELKSSYMVWSWFIYVLSANLLLVIPLLWVAAWWSLRPIEALAKEVRELEEHNRELLNPATTRELTSLVRNLNRLLKSERERYDKYRTTLTDLTHSLKTPLXXLQXXLRSLRSEKMSVSDAEPVMLEQISRISQQIGYYLHRASMRGGTLLSRELHPVAPLLDNLTSALNKVYQRKGVNISLDISPEISFVGEQNDFVEVMGNVLDNACKYCLEFVEISARQTDEHLYIVVEDDGPGIPLSKREVIFDRGQRVDTLRPGQGVGLAVAREITEQYEGKIVAGESMLGGARMEVIFGRQHSAPKDE

Variants of: B1
Test: enrichment ratio after two sorts for PhoP signalling (ratio (wild type AVST 3.29)); higher = more functional
Settings: with PhoP (E. coli)

Row | Variant | enrichment ratio
1 | NFHS | ≤ 0.25
2 | GSDW | ≤ 0.25
3 | YGMK | ≤ 0.25
4 | AVIF | 1.01
5 | KEFS | ≤ 0.25
6 | GGCF | 0.283
7 | MALE | 10.7
8 | DYNC | ≤ 0.25
9 | YMDW | ≤ 0.25
10 | SSEY | ≤ 0.25
11 | IKLA | ≤ 0.25
12 | FVSF | ≤ 0.25
13 | LYHH | ≤ 0.25
14 | LRSV | ≤ 0.25
15 | RDCH | ≤ 0.25
16 | GVCM | 3.45
17 | AGNC | ≤ 0.25
18 | GWIR | ≤ 0.25
19 | ETAL | ≤ 0.25
20 | ISDW | ≤ 0.25
21 | ESTL | ≤ 0.25
22 | FRYV | ≤ 0.25
23 | YWWP | ≤ 0.25
24 | NSVE | ≤ 0.25
25 | ELMA | ≤ 0.25

Row | Variant | enrichment ratio
26 | ERLY | ≤ 0.25
27 | VVTK | ≤ 0.25
28 | RMMM | ≤ 0.25
29 | IQRA | ≤ 0.25
30 | VTPR | ≤ 0.25
31 | VVSG | ≤ 0.25
32 | RKEV | ≤ 0.25
33 | DDCE | ≤ 0.25
34 | AFWE | ≤ 0.25
35 | SIQV | 6.42
36 | DMMT | ≤ 0.25
37 | IMFK | ≤ 0.25
38 | TKDR | ≤ 0.25
39 | FNVW | ≤ 0.25
40 | KAAV | ≤ 0.25
41 | RLLQ | 0.575
42 | EGRR | ≤ 0.25
43 | HSMR | ≤ 0.25
44 | EGTC | ≤ 0.25
45 | QESN | 5.1
46 | QFSY | ≤ 0.25
47 | RFMM | ≤ 0.25
48 | WGLF | 0.458
49 | FQVS | ≤ 0.25
50 | KCGW | ≤ 0.25

Row | Variant | enrichment ratio
51 | QDPN | ≤ 0.25
52 | IEKY | ≤ 0.25
53 | TGGQ | 3.57
54 | GTLD | ≤ 0.25
55 | TRSV | ≤ 0.25
56 | RDIN | ≤ 0.25
57 | VYWC | ≤ 0.25
58 | RHAF | ≤ 0.25
59 | DVHT | ≤ 0.25
60 | RKYN | ≤ 0.25
61 | RATN | ≤ 0.25
62 | DYNL | ≤ 0.25
63 | PCMS | ≤ 0.25
64 | WACF | ≤ 0.25
65 | WEII | ≤ 0.25
66 | YLIK | ≤ 0.25
67 | PRCQ | ≤ 0.25
68 | TFMN | ≤ 0.25
69 | AGLP | ≤ 0.25
70 | GDIW | ≤ 0.25
71 | MMNR | ≤ 0.25
72 | STEK | ≤ 0.25
73 | YKDQ | ≤ 0.25
74 | LFLR | ≤ 0.25
75 | LCIQ | ≤ 0.25

Row | Variant | enrichment ratio
76 | PRWD | ≤ 0.25
77 | YNDL | ≤ 0.25
78 | ESEI | ≤ 0.25
79 | RFME | ≤ 0.25
80 | PDHD | ≤ 0.25
81 | PAHR | ≤ 0.25
82 | FDLS | ≤ 0.25
83 | RKME | ≤ 0.25
84 | DLPR | ≤ 0.25
85 | IGNN | ≤ 0.25
86 | DNYG | ≤ 0.25
87 | WFSQ | ≤ 0.25
88 | GQAS | 0.909
89 | TNQR | ≤ 0.25
90 | WGIK | ≤ 0.25
91 | LAFL | 2.72
92 | YVNL | ≤ 0.25
93 | WDSK | ≤ 0.25
94 | KSNA | ≤ 0.25
95 | NDDD | ≤ 0.25
96 | ELPF | ≤ 0.25
97 | HPLM | ≤ 0.25
98 | GNLF | 6.83
99 | AIDL | ≤ 0.25
100 | KNQG | ≤ 0.25

Row | Variant | enrichment ratio
101 | GGTY | ≤ 0.25
102 | DGWW | ≤ 0.25
103 | AYPL | ≤ 0.25
104 | SQRY | ≤ 0.25
105 | VQVL | ≤ 0.25
106 | PYHA | ≤ 0.25
107 | LTHT | ≤ 0.25
108 | IMMH | ≤ 0.25
109 | PQDD | ≤ 0.25
110 | NSNM | ≤ 0.25
111 | YGKR | ≤ 0.25
112 | MDHP | ≤ 0.25
113 | WYIS | ≤ 0.25
114 | QNLM | ≤ 0.25
115 | YRGY | ≤ 0.25
116 | AMVL | 4.86
117 | ISMN | ≤ 0.25
118 | NGIL | ≤ 0.25
119 | AMLR | 2.02
120 | SFAD | ≤ 0.25
121 | PFFS | ≤ 0.25
122 | FLIC | ≤ 0.25
123 | INIW | ≤ 0.25
124 | QSEN | ≤ 0.25
125 | REYF | ≤ 0.25

Row | Variant | enrichment ratio
126 | YNQH | ≤ 0.25
127 | TIFD | ≤ 0.25
128 | QYSQ | ≤ 0.25
129 | AQFM | 12.2
130 | KVST | ≤ 0.25
131 | GWEW | ≤ 0.25
132 | SQCM | 19.2
133 | RKSG | ≤ 0.25
134 | IHFD | ≤ 0.25
135 | WTCA | ≤ 0.25
136 | VCIM | ≤ 0.25
137 | PQVW | ≤ 0.25
138 | GQRQ | ≤ 0.25
139 | TRKC | ≤ 0.25
140 | HGQP | ≤ 0.25
141 | HDHT | ≤ 0.25
142 | FTMT | ≤ 0.25
143 | KNFK | ≤ 0.25
144 | AGAM | 5.14
145 | PENA | ≤ 0.25
146 | IVLK | ≤ 0.25
147 | YHQG | ≤ 0.25
148 | LQQE | ≤ 0.25
149 | IICL | ≤ 0.25
150 | TNCN | 1.66

Row | Variant | enrichment ratio
151 | EFTS | ≤ 0.25
152 | FGDV | ≤ 0.25
153 | VVRK | ≤ 0.25
154 | ELTV | ≤ 0.25
155 | YPYY | ≤ 0.25
156 | SSVR | ≤ 0.25
157 | YQWC | ≤ 0.25
158 | WCST | ≤ 0.25
159 | FQGR | ≤ 0.25
160 | YDHI | ≤ 0.25
161 | MMSP | ≤ 0.25
162 | YSHK | ≤ 0.25
163 | WDTI | ≤ 0.25
164 | MYNH | ≤ 0.25
165 | YTLG | 6.93
166 | VFPW | ≤ 0.25
167 | GYKR | ≤ 0.25
168 | YLVQ | ≤ 0.25
169 | NLIW | ≤ 0.25
170 | SYHL | ≤ 0.25
171 | SPFV | ≤ 0.25
172 | PKMF | ≤ 0.25
173 | RRLK | ≤ 0.25
174 | LVFS | ≤ 0.25
175 | WSTI | ≤ 0.25

Row | Variant | enrichment ratio
176 | NPEL | ≤ 0.25
177 | HQFQ | ≤ 0.25
178 | FKDE | ≤ 0.25
179 | VNIY | ≤ 0.25
180 | WTMW | ≤ 0.25
181 | ELTQ | ≤ 0.25
182 | GVIF | ≤ 0.25
183 | LMQI | ≤ 0.25
184 | QNQP | ≤ 0.25
185 | RRMC | ≤ 0.25
186 | RGEF | ≤ 0.25
187 | HGHE | ≤ 0.25
188 | TYCG | 5.58
189 | KTAP | ≤ 0.25
190 | LCGE | ≤ 0.25
191 | SCIF | 0.456
192 | YTCP | ≤ 0.25
193 | GGFG | ≤ 0.25
194 | PSSC | ≤ 0.25
195 | WNRC | ≤ 0.25
